Reference: publication PMC4336329 (PLoS ONE, 2015)
The campaign covered roughly 310,000 compounds. About 2,200 (0.71%) showed an effect of 50% or more. Effects have a minus sign here. The list shows a part of the results.

These compounds were tested against human ether-à-go-go-related gene (hERG) potassium channel (human, UniProt Q12809) (assay: primary screen, population patch clamp on CHO cells stably expressing hERG).
Sequence of human ether-à-go-go-related gene (hERG) potassium channel (Q12809 whole entry, looked up): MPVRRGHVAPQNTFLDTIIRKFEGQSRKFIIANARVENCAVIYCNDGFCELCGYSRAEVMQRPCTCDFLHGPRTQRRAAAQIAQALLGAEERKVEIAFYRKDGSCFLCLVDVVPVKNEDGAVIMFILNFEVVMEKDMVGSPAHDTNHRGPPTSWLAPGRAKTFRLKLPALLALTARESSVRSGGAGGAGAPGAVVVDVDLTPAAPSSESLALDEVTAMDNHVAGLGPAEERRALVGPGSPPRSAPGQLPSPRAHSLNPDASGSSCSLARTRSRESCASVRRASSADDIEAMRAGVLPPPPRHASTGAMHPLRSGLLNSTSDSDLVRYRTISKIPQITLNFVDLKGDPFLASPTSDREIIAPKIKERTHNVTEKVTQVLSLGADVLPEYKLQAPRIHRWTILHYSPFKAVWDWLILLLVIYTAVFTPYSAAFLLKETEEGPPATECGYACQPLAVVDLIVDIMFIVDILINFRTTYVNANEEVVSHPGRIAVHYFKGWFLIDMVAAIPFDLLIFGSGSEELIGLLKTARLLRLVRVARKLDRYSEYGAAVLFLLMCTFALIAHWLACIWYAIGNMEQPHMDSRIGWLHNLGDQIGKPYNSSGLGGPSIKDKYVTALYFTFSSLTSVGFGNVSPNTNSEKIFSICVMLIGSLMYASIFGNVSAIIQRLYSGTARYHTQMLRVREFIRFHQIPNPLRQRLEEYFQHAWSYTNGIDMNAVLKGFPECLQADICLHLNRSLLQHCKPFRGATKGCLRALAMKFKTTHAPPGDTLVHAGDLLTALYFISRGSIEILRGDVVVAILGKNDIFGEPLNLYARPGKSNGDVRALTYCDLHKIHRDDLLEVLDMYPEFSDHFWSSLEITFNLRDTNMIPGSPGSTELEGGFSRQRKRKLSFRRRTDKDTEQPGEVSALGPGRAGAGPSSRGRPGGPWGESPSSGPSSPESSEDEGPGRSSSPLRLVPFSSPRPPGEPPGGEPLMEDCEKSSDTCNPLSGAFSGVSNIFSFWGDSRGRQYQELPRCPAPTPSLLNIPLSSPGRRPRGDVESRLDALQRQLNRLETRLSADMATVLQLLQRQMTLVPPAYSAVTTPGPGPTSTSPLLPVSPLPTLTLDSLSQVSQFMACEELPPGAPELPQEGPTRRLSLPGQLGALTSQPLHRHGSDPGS

| Compound | hERG current change (%, negative = inhibition) at 1uM [%] |
| --- | --- |
| COc1ccc2c(=O)c(Oc3ccc(C(=O)O)cc3)c(C(F)(F)F)oc2c1 | 1.68 |
| O=C(C1=C[C@@H](c2csc3ccccc23)C[C@@H](OCc2ccc(CO)cc2)O1)N1CCN(Cc2ccc3c(c2)OCO3)CC1 | 3.81 |
| COc1ccc(C)cc1NC(=O)C1CCN(S(=O)(=O)c2ccc3c(c2)C(C)(C)C(=O)N3C)CC1 | 11.5 |
| COC(=O)C1=C(c2ccc(-c3ccccc3)c(F)c2)C[C@@H]2CC[C@H]1N2C(=O)N1CCC(C)CC1 | 11.7 |
| CC(C)CNC(=O)COC(=O)c1ccc([N+](=O)[O-])cc1Cl | 0.162 |
| O=C(Cn1cc(C(F)(F)F)ccc1=O)N1CCc2ccccc2C1 | 13.2 |
| Cc1cccc(C(C)C)c1NC(=O)c1cc2ccccc2o1 | 16.7 |
| Oc1c(N=NC(=S)Nc2ccccc2F)c2ccccc2n1Cc1ccc(F)cc1 | 12.9 |
| CC(=O)Nc1ccc(S(=O)(=O)N2CCN(CC(O)COc3ccc4ccccc4c3)CC2)cc1 (stereo not shown) | 4.92 |
| COc1ccc(CCNC(=S)N2CCN(S(=O)(=O)c3ccccc3F)CC2)cc1 | 6.64 |
| COc1ccc(C(=O)CSc2nnc(C3CC3)n2N)cc1 | -0.707 |
| c1ccc(OCCCn2nnc(-c3cccnc3)n2)cc1 | 4.27 |
| COC(=O)C1=C(NC(=O)CCCCl)CCS1 | 20.1 |
| Nc1c(-c2ccsc2)cnc2ncnn12 | 10.2 |
| O=C(c1cccs1)N1CCc2ccccc2C1 | 9.68 |
| CCOC(=O)C1=C(C)N=C2SCCC(=O)N2[C@@H]1c1cccs1 | 9.75 |
| CC1CCN(S(=O)(=O)N2CCC(C(=O)NCCN3CCOCC3)CC2)CC1 | 7.15 |
| O=C(O)c1cnn2c(C(F)(F)F)cc(-c3ccccc3)nc12 | 9.54 |
| COc1ccc(NS(=O)(=O)c2ccc3c(c2)NC(=O)CO3)c(OC)c1 | 8.01 |
| Br.NCc1cc(=O)[nH]o1 | 11.9 |
| COc1cc(NC(=O)Cn2c(=O)n(CC3CCCO3)c(=O)c3cc(OC)c(OC)cc32)cc(OC)c1 (stereo not shown) | 12.9 |
| Cc1ccc(Oc2nnc(-c3ccc(C)cc3)c3ccccc23)cc1 | 9.14 |

| Compound | hERG current change (%, negative = inhibition) at 1uM [%] |
| --- | --- |
| Cc1csc(NC(=O)c2ccc3nc[nH]c3c2)n1 | 7.65 |
| CC(C)c1nnc(NC(=O)c2ccc(S(=O)(=O)N3CCOCC3)cc2)s1 | 9.24 |
| COc1ccc(-n2nc(C(=O)NCC(=O)N3CCN(Cc4ccccc4)CC3)c3ccccc3c2=O)cc1 | 13.1 |
| O=C(Nc1ccccc1)C1CCCCN1S(=O)(=O)c1ccccc1 (stereo not shown) | -2.5 |
| O=S(=O)(c1ccccc1F)N1CCN(c2nc(-c3cccnc3)nc3ccccc23)CC1 | 2.38 |
| O=C(NC1CCN(S(=O)(=O)c2ccccc2C(F)(F)F)CC1)c1ccco1 | 1.28 |
| CCC(=O)NC(=S)Nc1ccc(NC(=O)c2cccc([N+](=O)[O-])c2C)cc1 | 17.8 |
| CC(CC(=O)N(C)CC(=O)Nc1ccc(N2CCOCC2)cc1)c1ccccc1 (stereo not shown) | 0.22 |
| CCOc1ccc(-c2cc(C(=O)NCCCn3ccnc3)c3cc(Br)ccc3n2)cc1 | 5.17 |
| CN1CCN(Cc2cn3cccnc3n2)CC1 | 15.9 |
| COc1cc(/C=N\NC(=O)c2ccc(Cn3nc([N+](=O)[O-])c(Cl)c3C)o2)ccc1O | -13.7 |
| Nc1nc2c3ccccc3nc(C3CC3)n2n1 | 11.7 |
| COc1ccccc1-n1c(CCn2nc(C)c(Br)c2C)n[nH]c1=S | 11.8 |
| CCn1nc(C)c(C2C(C#N)=C(N)Oc3n[nH]c(C)c32)c1C (stereo not shown) | 9.87 |
| CC(=O)NC/C(C)=N\Nc1ccc([N+](=O)[O-])cc1 | -9.38 |
| COc1cc(C(C2C(=O)CC(C)(C)CC2=O)C2C(=O)CC(C)(C)CC2=O)cc(OC)c1OC | 9.47 |
| O=C(NNC(=O)c1ccccc1C(=O)O)c1ccc(O)cc1 | 5.97 |
| O=C(CCC1CCCC1)Nc1cccn(Cc2ccccc2Br)c1=O | 5.62 |
| O=C(c1cc2ccccc2c(=O)o1)N1CCCCCC1 | 4.53 |
| Cl.Fc1ccccc1COc1ccc(Br)cc1CNCc1ccncc1 | -22.4 |
| CC(C)CCNC(=O)C1CCC(CNc2c(N3CCC(C)CC3)c(=O)c2=O)CC1 (stereo not shown) | 8.49 |
| O=S(=O)(Cc1ccccc1)Nc1ccc(S(=O)(=O)N2CCCC2)cc1 | 19.8 |

| Compound | hERG current change (%, negative = inhibition) at 1uM [%] |
| --- | --- |
| CCCCn1c(=O)nc2n(-c3ccc(Cl)cc3)c3ccccc3cc-2c1=O | 13.6 |
| CCOc1cccc(-c2nn3c(-c4ccccn4)nnc3s2)c1 | 6.65 |
| Cn1ccnc1SCc1cccc([N+](=O)[O-])c1 | 0.244 |
| CCc1nnc(NC(=O)CSc2sc3c(O)cc(=O)[nH]c3c2C#N)s1 | 1.62 |
| CC(Oc1ccc(Br)cc1)C(=O)O/N=C(\N)c1ccncc1 (stereo not shown) | -4.91 |
| COc1cc(OC)cc(C(=O)NCCSCc2ccc(Cl)cc2)c1 | 7.06 |
| COCCNc1nc2nonc2nc1N(C)Cc1ccc(C)cc1 | 4.35 |
| CCc1[nH]nc(C(=O)N2CCCC(Nc3cccc(F)c3)C2)c1C (stereo not shown) | 11.4 |
| CC1=CC2=NC(=O)/C(=C\c3cccn3CCOc3ccc(C)c(C)c3)C(=N)N2O1 | 7.63 |
| Cc1ccc(C(=O)Nc2nc3ccccc3s2)s1 | 3.25 |
| COC(=O)c1ccccc1NC(=O)c1ccccc1NS(C)(=O)=O | 7.56 |
| COC(=O)c1ccc(COC(=O)c2cnc(Cl)c(Cl)c2)cc1 | 15.5 |
| CCn1ccnc1CNC(=O)c1cc(COc2ccc(F)cc2F)on1 | 7.9 |
| CCN1CCN(CCNC(=O)c2ccc3c(c2)N(Cc2ccc(F)cc2)C(=O)c2ccccc2S3=O)CC1 (stereo not shown) | 10.7 |
| O=C(C1CCCO1)N(c1cccc(Cl)c1)C1C=CS(=O)(=O)C1 (stereo not shown) | 5.23 |
| CC(=O)c1ccc(N2CCN(c3ccccc3O)CC2)c([N+](=O)[O-])c1 | 12.9 |
| Cc1ccc(-c2nc(CSCC(=O)NC3CCN(Cc4ccccc4)CC3)c(C)o2)cc1 | -11.1 |
| Cc1nc(SCC(=O)Nn2c(-c3ccccc3)nc3ccccc3c2=O)n[nH]1 | 7.38 |
| CC(C)Cn1c(=O)c(C(=O)N/N=C/c2cccc(F)c2)c(O)c2ccccc21 | 10.6 |
| Nc1ncnc2c1ncn2CCN1CCOCC1 | 6.99 |
| COC(=O)C(C)Oc1cc(C)cc2oc(=O)c3c(c12)CCC3 (stereo not shown) | 8.2 |
| CCCCOc1ccc(NC(=O)CSc2nnnn2C)cc1 | 0.973 |

| Compound | hERG current change (%, negative = inhibition) at 1uM [%] |
| --- | --- |
| O=C(Nc1ccc2c(c1)OCCO2)c1ccc(Cl)c(Cl)c1 | 9.06 |
| O=C(COC(=O)c1ccc(CO)cc1)Nc1ccc(OC(F)F)cc1 | 5.31 |
| CCC(C(=O)Nc1ccon1)c1ccccc1 (stereo not shown) | 9.61 |
| Cc1ccccc1-n1nc(-c2cccnc2)cc1C(=O)N/N=C/c1ccncc1 | -22.3 |
| CCn1c(SCC(=O)N2CCCc3ccccc32)nc2cccnc21 | 13.5 |
| CCOC(=O)c1c(NC(=O)COC(=O)c2ccc(O)cc2)sc(C(=O)NC)c1C | 2.5 |
| CCN(c1ccc(OC)cc1)S(=O)(=O)c1ccc2c(c1)NC(=O)CS2 | 13.6 |
| C[C@H](O)c1[nH]c2cc(F)ccc2c1[C@H](C)O | 14.2 |
| COc1cccc(C2Nc3ccccc3NC3=C2C(=O)CC(C)(C)C3)c1 (stereo not shown) | 6.32 |
| Cc1cc(NC(=O)CSc2nc3c(cc2C#N)CCCCC3)no1 | 0.175 |
| CN(Cc1ccccc1)S(=O)(=O)c1ccc(N2CCCC2=O)cc1 | 2.79 |
| CCOc1cc(/C=C2\N=C(SC)SC2=O)cc([N+](=O)[O-])c1OC(C)=O | 1.05 |
| COc1ccc(-n2ncc3c2CC(C)(C)CC3NC(=O)c2cnc(C)cn2)cc1 (stereo not shown) | 6.85 |
| Cc1ccc(S(=O)(=O)CCC(=O)OCC(=O)N(C)C2CCS(=O)(=O)C2)cc1 (stereo not shown) | 13.9 |
| Cc1ccc(OCc2nc(-c3ccc(Cl)cc3)n[nH]2)cc1.Cl | -0.627 |
| O=c1oc2ccccc2c(O)c1/C=N/c1ncccn1 | 8.99 |
| CC(C(=O)O)c1n[nH]c(=O)c2ccccc12 (stereo not shown) | 7.37 |
| CN1CCN(c2ccccc2NC(=O)c2ccc3c(c2)OCCO3)CC1 | 7.42 |
| O=[N+]([O-])c1ccc(N/N=C\c2cccn2-c2ccccc2)nc1 | 11.4 |
| CC[C@@]12C(=O)N(c3ccccc3)C(=O)N1[C@H](c1ccc(OC)cc1)[C@@H]1C(=O)N(C(C)(C)C)C(=O)[C@@H]12 | 20.2 |
| O=C(OCN1C(=O)c2ccccc2C1=O)/C(=C\c1ccco1)NC(=O)c1ccccc1 | 0.0037 |
| Cc1c(Cl)c(C(F)(F)F)nn1CC(=O)NN | 2.15 |
